Laboratory results from patent US9745340B2, “Method for the separation of proteins containing an albumin-binding” (AFFIBODY AB, priority 2012, dated 2017).

Assays:
PEP08519 = assay: Dynamic binding capacity at 10% breakthrough; settings: for Original dynamic binding capacity: before alkali
Protocol: In this experiment, the dynamic binding capacity and resistance to alkali was tested for the His6-(Z06677)2-Cys resin and an HSA Sepharose resin packed in the Tricorn 5/50 columns used in the chromatography study described in the previous section.
The experiment was performed using an ÄKTAexplorer 10 chromatography system. The two columns were attached to the system and equilibrated with PBS. For the capacity study, a sample containing 0.25 mg/ml of PEP08519 in PBS was loaded on each column at a flow-rate of 0.2 ml/min (corresponding to a residence time of 2.4 min) until the absorbance at 280 nm of the solution emerging from the columns reached 10% of the absorbance of the original sample (i.e. 10% breakthrough). The dead volume (i.e. tubing and column volume, measured by running a sample through a column comprising no affinity ligand) was subtracted from the sample volume. Bound protein was eluted with 0.1 M sodium citrate, 0.9 NaCl, pH 2.3. The columns were then re-equilibrated with PBS.
The four His6-(Z06677)2-Cys-coupled resins were packed in Tricorn 5/50 columns. The dynamic binding capacity was tested, after which the resins were subjected to 0.5 M NaOH for 2 h, followed by a second dynamic binding capacity test. The capacity tests and alkali incubations were carried out as described in Example 4.

PEP08517 = assay: Column study I: spin columns, Z variant-coupled SulfoLink resins, pure sample; type: binding
Protocol: 1 mg of each lyophilized ABD binding Z variant Z06608, Z06620, Z06638, Z06650, Z06677, Z06678 and Z06695, in the format His6-(Z#####)2-Cys produced as described in Example 2, was resuspended in a reducing buffer (50 mM Tris-HCl, 5 mM EDTA, 20 mM DTT, pH 8.5) and incubated at RT for 2 h. Reduced protein solutions were transferred to a coupling buffer (50 mM Tris-HCl, 5 mM EDTA, pH 8.5) including 50 mM DTT, using size exclusion chromatography, and then mixed with portions of 0.2 ml SulfoLink Coupling Resin (Thermo Fisher Scientific, cat. no. 20401). This procedure enables site-directed reaction between the thiol groups of the C-terminal cysteine residues of the ABD binding Z variants and the iodoacetyl groups of the resin, forming a covalent thioether bond. The coupling reaction was carried out according to the instructions by the manufacturer. The degree of coupling, defined as mg of coupled ABD binding Z variant per ml of resin, was determined as follows: The amount of coupled ABD binding Z variant was calculated by subtracting the amount of uncoupled material from the original amount of sample, based on concentrations obtained by spectrophotometric measurements of the absorbance at 280 nm. The amount of coupled ABD binding Z variant in mg was then divided with the volume of the SulfoLink Coupling Resin.
A first column study was performed to test binding, wash and elution properties of each of the seven ABD binding Z variants coupled to resin and by using a previously purified sample of the ABD fusion protein PEP08517. PEP08517 comprises the albumin binding domain PP013 (SEQ ID NO:160) fused at its N-terminus to a cytokine binding variant of protein Z. 0.1 ml portions of the resins were transferred to test tubes and 0.1 ml of a pure sample of PEP08517 at 2 mg/ml in coupling buffer was added. The tubes were incubated on a rotating wheel for 1 h at RT. Each sample-resin mix was transferred to an empty spin column. Unbound protein was collected by centrifugation (flow-through, FT). 0.1 ml of different solutions, specified in Table 1, were thereafter added to wash and subsequently elute bound PEP08517 molecules. Each wash and elution fraction was collected by centrifugation.
Collected fractions were analyzed in a spectrophotometer by measuring the absorbance at 280 nm.

Original dynamic binding capacity (PEP08519; Activated EAH Sepharose): 1.44 mol sample/mol affinity ligand | Original dynamic binding capacity (PEP08519; CNBr-activated Sepharose 4 Fast Flow): 0.92 mol sample/mol affinity ligand | dynamic binding capacity (PEP08519; Example 4, 10% breakthrough, Z ligand on EAH Sepharose, HSA on CNBr-activated Sepharose): 3.0 mg per ml resin | Original dynamic binding capacity (PEP08519; NHS-activated Sepharose 4 Fast Flow): 0.41 mol sample/mol affinity ligand | Original dynamic binding capacity (PEP08519; SulfoLink Coupling Resin): 1.44 mol sample/mol affinity ligand
B1: His6-(Z06677)2-Cys: dimeric Z06677 with N-terminal His6 tag and C-terminal Cys, MGSSHHHHHHLQ-[Z06677][Z06677]-VDC (protein)
chain: MGSSHHHHHHLQVDAKYAKELKVAFKEINTLPNLTHQQRIAFIIKLDDDPSQSSELLAEAKKLNDAQAPKVDAKYAKELKVAFKEINTLPNLTHQQRIAFIIKLDDDPSQSSELLAEAKKLNDAQAPKVDC
elution step releasing most of the sample (PEP08517; 0.5 M HAc, pH 2.5, first (a) or second (b) addition): eluted the majority of the sample at the first pH 2.5 buffer addition | elution profile in column study I (PEP08517; SulfoLink resin, wash PBS/Tris, elution pH 4 and pH 2.5, A280): most favorable elution profile
